Over roughly 110,000 compounds, “z-score” has its median near -0.1; the highest 2% begin near 2. The list shows a part of the results. Activity calls are given as the source filed them.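 Rule for the calls: active = z-score in the third read window above 3 or below -3; inactive = the rest.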
Target: Metabotropic glutamate receptor 8 (Rattus norvegicus) (UniProt P70579)
Experiment: rat mGluR8 modulators via GIRK flux, primary screen, cell-based, thallium flux, HTS (AID 488969)
Settings: HEK293 rat mGluR8, GIRK (G protein-gated inwardly rectifying potassium channel) thallium flux, FluoZin2; at 10 µM; stronger effect = higher value; submaximal glutamate (EC20) added with thallium

Sequence of UniProt P70579 (P70579 whole entry, looked up): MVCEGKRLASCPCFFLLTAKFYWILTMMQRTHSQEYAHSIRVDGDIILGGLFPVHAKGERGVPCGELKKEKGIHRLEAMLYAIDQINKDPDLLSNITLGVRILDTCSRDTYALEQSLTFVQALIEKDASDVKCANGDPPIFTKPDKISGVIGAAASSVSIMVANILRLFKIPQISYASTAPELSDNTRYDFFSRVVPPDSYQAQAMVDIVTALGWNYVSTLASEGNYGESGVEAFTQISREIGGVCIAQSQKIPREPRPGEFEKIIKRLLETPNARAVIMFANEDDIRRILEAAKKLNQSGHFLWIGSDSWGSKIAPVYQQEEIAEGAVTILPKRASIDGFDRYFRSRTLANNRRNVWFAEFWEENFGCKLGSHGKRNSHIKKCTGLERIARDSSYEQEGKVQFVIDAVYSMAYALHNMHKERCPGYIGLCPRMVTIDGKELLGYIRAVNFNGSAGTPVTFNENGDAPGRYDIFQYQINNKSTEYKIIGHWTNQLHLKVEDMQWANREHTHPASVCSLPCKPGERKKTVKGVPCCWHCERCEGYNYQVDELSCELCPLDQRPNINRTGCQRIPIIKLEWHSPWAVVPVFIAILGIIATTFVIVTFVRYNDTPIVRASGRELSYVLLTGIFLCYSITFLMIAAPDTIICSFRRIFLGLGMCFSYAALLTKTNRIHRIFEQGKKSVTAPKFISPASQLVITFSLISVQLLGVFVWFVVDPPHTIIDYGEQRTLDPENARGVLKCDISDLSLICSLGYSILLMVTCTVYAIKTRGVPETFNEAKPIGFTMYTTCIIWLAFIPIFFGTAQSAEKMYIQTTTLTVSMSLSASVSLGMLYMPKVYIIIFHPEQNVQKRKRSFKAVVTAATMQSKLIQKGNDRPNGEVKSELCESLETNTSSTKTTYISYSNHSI

In order of rising z-score:
1. C=CCn1cc(/C=N/NC(=O)COc2cccc3cccnc23)c2ccccc21  -0.515
2. COc1cccc(Oc2cn[nH]c2-c2ccc(O)cc2O)c1  -0.382
3. CC1(C)CC(=O)c2c(nn(-c3ccccc3)c2N)C1  -0.372
4. Cc1cc(O)ccc1Nc1nc(-c2sc(N)nc2C)cs1  -0.368
5. CC(=O)c1cccc(NC(=O)c2nccnc2C(=O)O)c1  -0.311
6. Cc1ccc(S(=O)(=O)Nc2cccnc2)cc1  -0.295
7. COc1ccc(S(=O)(=O)NCc2ccc(C(=O)N3CCc4ccccc4C3)cc2)cc1  -0.293
8. CC(C)CC(=O)Nc1ccc(Nc2ccccc2)cc1  -0.238
9. CCC1SC2=NC(C)=C(C(=O)OC)C(c3ccc(C)cc3)N2C1=O (stereo not given)  -0.234
10. CCc1ccc(N(C(=O)Cc2cccs2)C(C(=O)NC2CCCCC2)c2cn(C)nc2C)cc1 (stereo not given)  -0.152
11. [O-][N+]1=C(c2cccs2)CN(O)C1  -0.145
12. O=C(Nc1cccc(C(F)(F)F)c1)c1cc2c(=O)c3ccccc3oc2nc1C(F)(F)F  -0.121
13. CCc1cc2c3c(c1)/C(=C1/SC(N)=NC1=O)C(=O)N3C(C)(C)C=C2C  -0.0547
14. CCCc1cc(C(=O)NCc2cccnc2)no1  -0.0421
15. O=S(=O)(N/N=C\c1ccc(-c2ccccc2Cl)o1)c1ccccc1  -0.0372
16. Cc1ccc(-c2nnc(Nc3ccc(C(=O)N(C)C)cc3)c3ccccc23)cc1S(=O)(=O)NCC1CCCO1 (stereo not given)  -0.0331
17. Cc1cccc(Nc2nnc(SCC(=O)NCc3cccs3)s2)c1C  -0.0186
18. Cn1c(=O)c2[nH]c(NCC3CCCO3)nc2n(-c2ccccc2)c1=O (stereo not given)  0.0423
19. CCCC1=C(C(=O)OCC)C(c2cc(Cl)cc(OC)c2OCc2ccccc2)NC(=O)N1 (stereo not given)  0.293
20. O=C(CSc1nc2ccccc2c(=O)n1NC(=O)c1ccccc1)c1ccccc1  0.299
21. O=C(COc1ccc(Br)cc1Cl)NC(=O)NCc1ccccc1  0.301
22. COc1ccc(N2C(=O)CC(NC34CC5CC(CC(C5)C3)C4)C2=O)c(OC)c1 (stereo not given)  0.417
23. O=C(Cn1c(=O)oc2cc(S(=O)(=O)N3CCCC3)ccc21)N1CCCC1  0.458
24. CCOC(=O)c1nc2nc(C)c(Cl)c(=O)n2[nH]1  0.555
25. C[N+](C)(C)CCCCCCC(=O)/C=N/O  0.559
26. Cc1ccc(C(=O)COC(=O)CCc2nc3ccccc3[nH]c2=O)cc1C  0.642
27. Cc1ccc(S(=O)(=O)N2CC3CCC2C3)cc1 (stereo not given)  0.802
28. O=C(CCc1ccc(S(=O)(=O)N2CCOCC2)cc1)NCCc1ccccn1  1.44
29. O=[N+]([O-])c1ccc(-c2cn(-c3ccc(Cl)cc3)c(=S)[nH]2)cc1  2.83

For `COC(=O)c1ccc(-n2c(C)cc(C(=O)CSc3ccc(NC(C)=O)cc3)c2C)cc1`, the z-score was active: 3.5.

Source: PubChem BioAssay AID488969 (Vanderbilt High Throughput Screening Facility, 2010)
